Measurements: PubChem BioAssay AID206 (DTP/NCI, 2004)
Records with an inconclusive call do not appear. The source holds more than one record for some entries. The other results are left out here. There may be further records. The values listed for one entry differ for a reason that is not stated; they may come from other doses, times, organisms or constructs than stated.

Test system: nude mice, HT29 intrarenal xenograft, tumor weight T/C
Experiment: NCI In Vivo Anticancer Drug Screen. Data for tumor model HT29;CX-1 Human Adenocarcinoma (MER+) (intrarenal inoculation) in NU/NU Swiss (nude) mice
Details: endpoint: mean tumor weight change, higher = larger tumour
Description: The antitumor activity of compounds was measured in mice bearing transplantable tumors. Survival or tumor size were measured and the results are expressed as the measurement made in the treated group (T) divided by the measurement made in the vehicle treated control group (C). The tumor model used in this assay is HT29;CX-1 Human Adenocarcinoma (MER+) (intrarenal inoculation) in NU/NU Swiss (nude) mice

[1] = dose: 400.0 mg/kg/injection, schedule: Q01DX010 (sc), vehicle: Klucel (hydroxypropylcellulose) (HPC)

`CC(=O)c1c(O)c(C)c(O)c2c1OC1=CC(=O)C(C(C)=O)C(=O)C12C` (configuration not stated) was tested, and the T/C (dose: 100.0 mg/kg/injection, schedule: Q01DX010 (sc), vehicle: sodium bicarbonate) was 52 % of control, 58 % of control, 114 % of control, the T/C (dose: 200.0 mg/kg/injection, schedule: Q01DX010 (sc), vehicle: sodium bicarbonate) was 17 % of control, 60 % of control, 75 % of control and the T/C (dose: 400.0 mg/kg/injection, schedule: Q01DX010 (sc), vehicle: sodium bicarbonate) was -6 % of control, 44 % of control, 97 % of control.
`COC1C(O)CC(OC2CC(OC3CC(O[C@@H]4C(=O)c5c(cc6cc(OC7CC(OC8CC(O)C(O)C(C)O8)C(O)C(C)O7)c(C)c(O)c6c5O)C[C@H]4[C@H](OC)C(=O)[C@@H](O)[C@@H](C)O)OC(C)C3O)OC(C)C2O)OC1C` (some centres not stated) was tested, and the T/C (dose: 3.0 mg/kg/injection, schedule: Q01DX010 (sc), vehicle: saline) was -39 % of control, 9 % of control, 48 % of control and the T/C (dose: 6.0 mg/kg/injection, schedule: Q01DX010 (sc), vehicle: saline) was -74 % of control and -42 % of control.
With `CC(C)NC(=O)OCc1c(COC(=O)NC(C)C)c(-c2ccc(Cl)c(Cl)c2)n2c1CCC2` the T/C (dose: 100.0 mg/kg/injection, schedule: Q01DX010 (sc), vehicle: distilled water + Tween-80) was 46 % of control, 64 % of control, 106 % of control.
`COC1C(O)C(C)OC(OC2C(Oc3cccc4c(O)c5c(=O)oc6ccc(C)c7c(=O)oc(c34)c5c67)OC(C)C(O)C2O)C1O` (configuration not stated) was tested, and the T/C (dose: 100.0 mg/kg/injection, schedule: Q01DX010 (sc), vehicle: Klucel (hydroxypropylcellulose) (HPC)) was 24 % of control, 59 % of control, 75 % of control, the T/C (dose: 200.0 mg/kg/injection, schedule: Q01DX010 (sc), vehicle: Klucel (hydroxypropylcellulose) (HPC)) was 30 % of control, 42 % of control, 61 % of control and the T/C [1] was 19 % of control, 47 % of control, 50 % of control.
With `CCCCCCCCCCCCCCCCS(=O)CC(O)COC(=O)c1ccc(C(=O)OCC(O)CS(=O)CCCCCCCCCCCCCCCC)cc1` (configuration not stated) the T/C (dose: 100.0 mg/kg/injection, schedule: Q01DX010 (sc), vehicle: saline + Tween-80 + alcohol) was 72 % of control and 244 % of control and the T/C (dose: 200.0 mg/kg/injection, schedule: Q01DX010 (sc), vehicle: saline + Tween-80 + alcohol) was 52 % of control and 178 % of control.
For `COc1cccc2c1C(=O)c1c(O)c3c(c(O)c1C2=O)C[C@@](O)(/C(C)=N/NC(=O)c1ccc(Cl)cc1)C[C@@H]3OC1CC(N)C(O)C(C)O1` (some centres not stated), the T/C (dose: 40.0 mg/kg/injection, schedule: Q04DX004 (sc), vehicle: water) was 28 % of control and 85 % of control.
`S=C=NCCc1ccccc1` was tested, and the T/C (dose: 50.0 mg/kg/injection, schedule: Q01DX010 (sc), vehicle: saline with Tween-80) was 31 % of control, 39 % of control, 75 % of control and the T/C (dose: 200.0 mg/kg/injection, schedule: Q01DX010 (sc), vehicle: saline with Tween-80) was 6 % of control and 51 % of control.
`Cn1c(=O)[nH]c2nncnc2c1=O` was tested, and the T/C (dose: 30.0 mg/kg/injection, schedule: Q04DX004 (sc), vehicle: water) was 94 % of control and 120 % of control.
With `CC(C)CCCCCCCCCCCCC(=O)NCC(=O)NC1C(O)C(O)C(Nc2ncnc3nc[nH]c23)OC1C(O)CO` (configuration not stated) the T/C (dose: 0.4 mg/kg/injection, schedule: Q01DX010 (sc), vehicle: saline) was 47 % of control and 111 % of control and the T/C (dose: 1.6 mg/kg/injection, schedule: Q01DX010 (sc), vehicle: saline) was -21 % of control and 24 % of control.
With `C=C(NC(=O)C(=C)NC(=O)c1csc(C2=NC3c4csc(n4)C4NC(=O)c5csc(n5)C(C(C)(O)C(C)O)NC(=O)C5CSC(=N5)/C(=C/C)NC(=O)C(C(C)O)NC(=O)c5csc(n5)C3(CC2)NC(=O)C(C)NC(=O)C(=C)NC(=O)C(C)NC(=O)C(C(C)CC)NC2C=Cc3c(C(C)O)cc(nc3C2O)C(=O)OC4C)n1)C(N)=O` (configuration not stated) the T/C [1] was 68 % of control and 152 % of control and the T/C (dose: 1600.0 mg/kg/injection, schedule: Q01DX010 (sc), vehicle: Klucel (hydroxypropylcellulose) (HPC)) was 13 % of control and 52 % of control.
For `CC1(C)COCN1COC1CCCCC1`, the T/C (dose: 200.0 mg/kg/injection, schedule: Q04DX004 (sc), vehicle: saline) was 17 % of control and 74 % of control, the T/C (dose: 400.0 mg/kg/injection, schedule: Q04DX004 (sc), vehicle: saline) was 55 % of control and 111 % of control and the T/C (dose: 800.0 mg/kg/injection, schedule: Q04DX004 (sc), vehicle: saline) was 33 % of control and 94 % of control.
